# Data reported in the supplement of paper PMC8728848.
# This is one part of the list.
# Tests used:
# Assay in all cases: glycan array binding signal (z-score within array); higher = stronger binding
# Settings in all cases: glycan notation: IUPAC condensed, linker removed
# [1] = target: GlcNAc(b1-6)Gal(b1-4)GlcNAc
# How it was run: (§1)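 Glycan array binding is given as a within-array Z-score, which can be read as non-binding when negative. The arrays, 3228 of them, came from the Consortium for Functional Glycomics database and were retained only where the protein sequence was available. Z-scores were averaged across arrays of the same protein sequence at different concentrations or buffers and across linkers.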
# GlcNAc(b1-6)GalNAc = target: GlcNAc(b1-6)GalNAc
# How it was run: as §1
# GlcNAc3Prop(b1-4)GlcNAc = target: GlcNAc3Prop(b1-4)GlcNAc
# How it was run: as §1
# [2] = target: GlcNAc6S(b1-3)Gal(b1-4)GlcNAc
# How it was run: as §1
# Kdn(a2-3)Gal(b1-3)GalNAc = target: Kdn(a2-3)Gal(b1-3)GalNAc
# How it was run: as §1
# Kdn(a2-3)Gal(b1-3)GlcNAc = target: Kdn(a2-3)Gal(b1-3)GlcNAc
# How it was run: as §1
# Kdn(a2-3)Gal(b1-4)Glc = target: Kdn(a2-3)Gal(b1-4)Glc
# How it was run: as §1
# Kdn(a2-3)Gal(b1-4)GlcNAc = target: Kdn(a2-3)Gal(b1-4)GlcNAc
# How it was run: as §1
# [3] = target: Kdn(a2-3)Gal(b1-4)[Fuc(a1-3)]GlcNAc
# How it was run: as §1
# Kdn(a2-6)Gal(b1-4)GlcNAc = target: Kdn(a2-6)Gal(b1-4)GlcNAc
# How it was run: as §1
# [4] = target: Man(a1-2)Man(a1-2)Man(a1-3)Man
# How it was run: as §1
# [5] = target: Man(a1-2)Man(a1-2)Man(a1-6)[Man(a1-3)]Man
# How it was run: as §1
# Man(a1-2)Man(a1-3)Man = target: Man(a1-2)Man(a1-3)Man
# How it was run: as §1
# [6] = target: Man(a1-2)Man(a1-3)[Man(a1-2)Man(a1-6)]Man
# How it was run: as §1
# [7] = target: Man(a1-2)Man(a1-3)[Man(a1-2)Man(a1-6)]Man(a1-6)[Man(a1-2)Man(a1-2)Man(a1-3)]Man
# How it was run: as §1
# [8] = target: Man(a1-2)Man(a1-3)[Man(a1-2)Man(a1-6)]Man(a1-6)[Man(a1-2)Man(a1-2)Man(a1-3)]Man(b1-4)GlcNAc(b1-4)GlcNAc
# How it was run: as §1
# [9] = target: Man(a1-2)Man(a1-3)[Man(a1-6)]Man(a1-6)[Man(a1-2)Man(a1-3)]Man(b1-4)GlcNAc(b1-4)GlcNAc
# How it was run: as §1
# [10] = target: Man(a1-2)Man(a1-6)[Man(a1-3)]Man(a1-6)[Man(a1-2)Man(a1-2)Man(a1-3)]Man
# How it was run: as §1
# [11] = target: Man(a1-2)Man(a1-6)[Man(a1-3)]Man(a1-6)[Man(a1-2)Man(a1-2)Man(a1-3)]Man(b1-4)GlcNAc(b1-4)GlcNAc
# How it was run: as §1
# Man(a1-3)[Man(a1-6)]Man = target: Man(a1-3)[Man(a1-6)]Man
# How it was run: as §1
# [12] = target: Man(a1-3)[Man(a1-6)]Man(a1-6)[Man(a1-2)Man(a1-3)]Man(b1-4)GlcNAc(b1-4)GlcNAc
# How it was run: as §1
# [13] = target: Man(a1-3)[Man(a1-6)]Man(a1-6)[Man(a1-3)]Man
# How it was run: as §1
# [14] = target: Man(a1-3)[Man(a1-6)]Man(a1-6)[Man(a1-3)]Man(b1-4)GlcNAc(b1-4)GlcNAc
# How it was run: as §1
# [15] = target: Man(a1-3)[Man(a1-6)]Man(b1-4)GlcNAc(b1-4)GlcNAc
# How it was run: as §1
# Man(a1-6)Man = target: Man(a1-6)Man
# How it was run: as §1
# Man(b1-4)GlcNAc = target: Man(b1-4)GlcNAc
# How it was run: as §1
# Neu5Ac(a2-3)Gal = target: Neu5Ac(a2-3)Gal
# How it was run: as §1
# [16] = target: Neu5Ac(a2-3)Gal(b1-3)GalNAc
# How it was run: as §1
# [17] = target: Neu5Ac(a2-3)Gal(b1-3)GalNAc(b1-3)Gal(a1-4)Gal(b1-4)Glc
# How it was run: as §1
# [18] = target: Neu5Ac(a2-3)Gal(b1-3)GalNAc(b1-4)[Neu5Ac(a2-3)]Gal(b1-4)Glc
# How it was run: as §1
# [19] = target: Neu5Ac(a2-3)Gal(b1-3)GalNAc(b1-4)[Neu5Ac(a2-8)Neu5Ac(a2-3)]Gal(b1-4)Glc
# How it was run: as §1
# [20] = target: Neu5Ac(a2-3)Gal(b1-3)GalNAc6S
# How it was run: as §1
# [21] = target: Neu5Ac(a2-3)Gal(b1-3)GlcNAc
# How it was run: as §1
# [22] = target: Neu5Ac(a2-3)Gal(b1-3)GlcNAc(b1-2)Man(a1-3)[Neu5Ac(a2-3)Gal(b1-3)GlcNAc(b1-2)Man(a1-6)]Man(b1-4)GlcNAc(b1-4)GlcNAc
# How it was run: as §1
# [23] = target: Neu5Ac(a2-3)Gal(b1-3)GlcNAc(b1-3)Gal(b1-3)GlcNAc
# How it was run: as §1
# [24] = target: Neu5Ac(a2-3)Gal(b1-3)GlcNAc(b1-3)Gal(b1-4)GlcNAc
# How it was run: as §1
# [25] = target: Neu5Ac(a2-3)Gal(b1-3)GlcNAc(b1-3)GalNAc
# How it was run: as §1
# [26] = target: Neu5Ac(a2-3)Gal(b1-3)GlcNAc6S
# How it was run: as §1
# [27] = target: Neu5Ac(a2-3)Gal(b1-3)[Fuc(a1-4)]GlcNAc
# How it was run: as §1
# [28] = target: Neu5Ac(a2-3)Gal(b1-3)[Fuc(a1-4)]GlcNAc(b1-3)Gal(b1-3)[Fuc(a1-4)]GlcNAc
# How it was run: as §1
# [29] = target: Neu5Ac(a2-3)Gal(b1-3)[Fuc(a1-4)]GlcNAc(b1-3)Gal(b1-4)[Fuc(a1-3)]GlcNAc
# How it was run: as §1
# [30] = target: Neu5Ac(a2-3)Gal(b1-3)[Neu5Ac(a2-3)Gal(b1-4)]GlcNAc
# How it was run: as §1
# [31] = target: Neu5Ac(a2-3)Gal(b1-3)[Neu5Ac(a2-6)]GalNAc
# How it was run: as §1
# Neu5Ac(a2-3)Gal(b1-4)Glc = target: Neu5Ac(a2-3)Gal(b1-4)Glc
# How it was run: as §1
# [32] = target: Neu5Ac(a2-3)Gal(b1-4)GlcNAc
# How it was run: as §1
binder,measurement,setting,value
"Eosinophil cationic protein (ECP) (Homo sapiens), P12724 (protein) MVPKLFTSQICLLLLLGLMGVEGSLHARPPQFTRAQWFAIQHISLNPPRCTIAMRAINNYRWRCKNQNTFLRTTFANVVNVCGNQSIRCPHNRTLNNCHRSRFRVPLLHCDLINPGAQNISNCTYADRPGRRFYVVACDNRDPRDSPRYPVVPVHLDTTI",glycan array binding signal (z-score),[1],0.126
same,glycan array binding signal (z-score),GlcNAc(b1-6)GalNAc,-0.344
same,glycan array binding signal (z-score),GlcNAc3Prop(b1-4)GlcNAc,-0.299
same,glycan array binding signal (z-score),[2],-0.39
same,glycan array binding signal (z-score),Kdn(a2-3)Gal(b1-3)GalNAc,0.204
same,glycan array binding signal (z-score),Kdn(a2-3)Gal(b1-3)GlcNAc,-0.093
same,glycan array binding signal (z-score),Kdn(a2-3)Gal(b1-4)Glc,0.085
same,glycan array binding signal (z-score),Kdn(a2-3)Gal(b1-4)GlcNAc,0.092
same,glycan array binding signal (z-score),[3],0.062
same,glycan array binding signal (z-score),Kdn(a2-6)Gal(b1-4)GlcNAc,-0.319
same,glycan array binding signal (z-score),[4],-0.361
same,glycan array binding signal (z-score),[5],-0.321
same,glycan array binding signal (z-score),Man(a1-2)Man(a1-3)Man,-0.065
same,glycan array binding signal (z-score),[6],-0.495
same,glycan array binding signal (z-score),[7],-0.174
same,glycan array binding signal (z-score),[8],-0.101
same,glycan array binding signal (z-score),[9],0.001
same,glycan array binding signal (z-score),[10],-0.536
same,glycan array binding signal (z-score),[11],0.498
same,glycan array binding signal (z-score),Man(a1-3)[Man(a1-6)]Man,0.316
same,glycan array binding signal (z-score),[12],0.25
same,glycan array binding signal (z-score),[13],-0.195
same,glycan array binding signal (z-score),[14],-0.247
same,glycan array binding signal (z-score),[15],-0.299
same,glycan array binding signal (z-score),Man(a1-6)Man,0.134
same,glycan array binding signal (z-score),Man(b1-4)GlcNAc,-0.235
same,glycan array binding signal (z-score),Neu5Ac(a2-3)Gal,-0.232
same,glycan array binding signal (z-score),[16],-0.31
same,glycan array binding signal (z-score),[17],0.087
same,glycan array binding signal (z-score),[18],-0.102
same,glycan array binding signal (z-score),[19],-0.122
same,glycan array binding signal (z-score),[20],0.233
same,glycan array binding signal (z-score),[21],0.009
same,glycan array binding signal (z-score),[22],-0.487
same,glycan array binding signal (z-score),[23],0.178
same,glycan array binding signal (z-score),[24],-0.221
same,glycan array binding signal (z-score),[25],-0.26
same,glycan array binding signal (z-score),[26],-0.054
same,glycan array binding signal (z-score),[27],-0.048
same,glycan array binding signal (z-score),[28],-0.729
same,glycan array binding signal (z-score),[29],1.1
same,glycan array binding signal (z-score),[30],-0.033
same,glycan array binding signal (z-score),[31],-0.097
same,glycan array binding signal (z-score),Neu5Ac(a2-3)Gal(b1-4)Glc,-0.018
same,glycan array binding signal (z-score),[32],-0.314
